In paper PMC6919601, “Identification of Plasmodium dipeptidyl aminopeptidase allosteric inhibitors by high throughput screening” (PLoS ONE, 2019):
About 230 (0.21%) of roughly 110,000 compounds showed an effect of 50% or more. Some of the results follow.

The molecules below were run against DPAP1 (Plasmodium falciparum, UniProt Q8IIJ9) (assay: primary screen, percent inhibition; read by cleavage of a fluorogenic dipeptide substrate; higher = more effect of the substance).
Design: species or system P. falciparum D10 trophozoite lysates; single well
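Further: 30 min substrate incubation versus DMSO and 10 µM JCP410 controls.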

Chain of DPAP1 (Q8IIJ9 whole entry, looked up): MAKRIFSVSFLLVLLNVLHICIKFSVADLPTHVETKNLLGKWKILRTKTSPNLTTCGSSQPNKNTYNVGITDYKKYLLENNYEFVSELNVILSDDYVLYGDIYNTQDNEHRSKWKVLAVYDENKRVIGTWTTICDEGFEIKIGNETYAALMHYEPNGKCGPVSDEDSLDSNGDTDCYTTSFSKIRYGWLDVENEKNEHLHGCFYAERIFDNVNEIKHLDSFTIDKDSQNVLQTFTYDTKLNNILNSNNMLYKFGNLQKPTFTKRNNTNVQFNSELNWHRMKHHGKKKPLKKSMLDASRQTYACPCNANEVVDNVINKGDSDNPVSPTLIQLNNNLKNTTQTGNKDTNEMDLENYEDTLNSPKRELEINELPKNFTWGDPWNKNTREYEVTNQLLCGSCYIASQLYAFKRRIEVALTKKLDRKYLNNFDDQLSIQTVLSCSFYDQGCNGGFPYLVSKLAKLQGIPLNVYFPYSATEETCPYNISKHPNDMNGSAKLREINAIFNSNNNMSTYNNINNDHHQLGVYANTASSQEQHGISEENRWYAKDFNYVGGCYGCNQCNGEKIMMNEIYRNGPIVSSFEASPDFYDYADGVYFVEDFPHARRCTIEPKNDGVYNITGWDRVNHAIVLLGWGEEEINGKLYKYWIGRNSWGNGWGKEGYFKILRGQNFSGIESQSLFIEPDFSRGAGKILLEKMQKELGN

Compound | % Inhibition @ 10 uM [%]
Cc1ccc2c(c1)-c1cc(C)nn1C(c1ccccc1)N2 (centres unmarked) | -8.41
O=C(NCc1ccc2c(c1)OCO2)C1CCN(c2nc3cc(Cl)ccc3s2)CC1 | 1.16
COc1cccc(C2C(C#N)=C(N)Oc3[nH]nc(-c4cc(C)sc4C)c32)c1 (centres unmarked) | -0.958
CCOC(=O)N1CCC(NC(=O)Cn2ncc3c2-c2cc(C)ccc2OC3)CC1 | -2.53
CC(=O)NS(=O)(=O)c1ccc(NC(=O)CCC2CCCCC2)cc1 | -2.19
CCN(Cc1ccccc1)C(=O)C1CCN(S(=O)(=O)c2ccc3nc(O)ccc3c2)CC1 | -4.68
N#CC1=C(N)Oc2c(O)cc3ccccc3c2C1c1cccc(Cl)c1 (centres unmarked) | 2.92
CC(=O)C1=C(O)C(=O)N(c2ccc(C)c(Br)c2)C1c1cccc(F)c1 (centres unmarked) | 3.53
CCCCn1c2ccccc2n2cc(CN(C)C34CC5CC(CC(C5)C3)C4)nc12 | -0.828
CC(C)(C)OC(=O)N1CCC(c2c(C(=O)NCc3ccc(F)cc3)cnn2-c2cccc(F)c2)CC1 | -5.38
COc1ccc(C(=O)N/C(=C\c2ccco2)C(=O)NCc2cccnc2)cc1 | -0.178
CCOC(=O)c1c(C)sc2c1OC(N)=C(C#N)C2c1cccc(F)c1 (centres unmarked) | -3.34
COc1ccccc1/N=C1\SC(C(=O)Nc2ccccc2F)CC(=O)N1C (centres unmarked) | -1.37
CCO/C(O)=C1\Cn2ncnc2N=C1C | -1.68
COc1ccc(NC(=O)COc2ccc(C)cc2C)cc1 | -2.32
COc1cccc(NC(=O)CSc2nc3ccccc3[nH]2)c1 | -5.07
CCOC(=O)C1=CN(C)C=C(C(=O)OCC)C1c1ccc(OC)c(O)c1 | -1.48
FC(OC(F)(F)F)c1nc2ccccc2[nH]1 (centres unmarked) | -1.86
CCOC(=O)c1c(C)[nH]c(C)c1S(=O)(=O)N1CCC(C(=O)N2CCn3c2nc2ccccc23)CC1 | -0.695
CCN(CC)CCNC(=O)C1CCCN(c2nnc(C)c3c(C)n(-c4ccccc4)nc23)C1 (centres unmarked) | 1.57
CCC(=O)CC(Sc1cc(=O)oc2ccccc12)c1ccccc1 (centres unmarked) | 3.06
COc1cc(/C=c2\s/c(=C/C(=O)c3ccc(C)cc3)[nH]c2=O)ccc1O | 2.16
OC(CN1CCCc2ccccc21)Cn1c2ccccc2c2ccccc21 (centres unmarked) | 1.23
COc1ccc(CSc2nnc(C)n2N)cc1 | -1.26
O=S1(=O)C(/C=N/Cc2ccc3c(c2)OCO3)=C(O)c2sccc2N1Cc1ccc(F)cc1 | 0.886
CCOC(=O)C1=C(Cc2ccc(Cl)cc2)C(=O)c2ccccc2C1=O | 3.74
